Test results reported in PubChem BioAssay AID686979 (National Center for Advancing Translational Sciences (NCATS), 2013).
Among all 420,000 compounds or so, about 50,000 (12%) were called active. The inconclusive results got no clear call from the source; some entries with a clear call stand among them for comparison. The call rests on the fitted dose curve; in most records, active means well fitted inhibition curve with a large enough effect; inconclusive means small, poorly fitted or top-dose-only effect; inactive means flat fitted curve, though single readings scatter. No potency is given beside an inconclusive call; the fits are too rough.

Assay: qHTS for Inhibitors of human tyrosyl-DNA phosphodiesterase 1 (TDP1): qHTS in cells in presence of CPT; further: nearly all actives have a fitted effect of over 55% in size
Conditions: chicken DT40 Tdp1-/-;hTDP1 cells + 20 nM CPT, ATP luminescence, 48 h; activity change, negative = growth inhibition: at 46.2 µM (top of the series) unless noted
Method in brief: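 Cell growth measured by CellTiter-Glo luminescence after a minimum 48 h, 37 C compound exposure with 20 nM CPT in Tdp1-knockout DT40 cells stably expressing hTDP1, seeded 400/well; qHTS titration format.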
On the % scale 0 is the no-effect control and ±100 the full control effect; potency means the concentration at half of the fitted maximal effect; tags describe the fitted curve by direction and shape.

SMILES	Potency	activity change, negative = growth inhibition
O=C(Cc1ccccc1F)NCC(c1ccco1)N1CCCCC1 (centres undefined)	inactive	–
O=c1[nH]c(=O)c2[nH]c(=O)[nH]c2[nH]1	inactive	–
O=C(O)C1=C[C@@H](c2coc3ccccc3c2=O)C[C@@H](OCCCCO)O1	inactive	–
Cc1cc(C)cc(N2C(=O)CSC23C(=O)N(CC(=O)NCCc2ccccc2)c2ccccc23)c1 (centres undefined)	inconclusive [inhibitor, single point]	–
CC(C)(C)c1ccc(C(=O)O/N=C(\N)Cc2cccs2)cc1	inconclusive [inhibitor, single point]	–
COc1ccc(OCc2nnc(SC(C)C(=O)Nc3ccc(N4CCOCC4)cc3)n2C)cc1 (centres undefined)	inactive	–
COc1ccc(/C=C/c2ccc(=O)n(Cc3ccccc3)n2)cc1	inconclusive [inhibitor, single point]	–
Cn1c(=O)c2c(nc(NCC3CCCO3)n2Cc2ccccc2)n(C)c1=O (centres undefined)	inconclusive [inhibitor, single point]	–
Cc1ccc(CSCc2ccc(C(=O)NCCc3ccc(Cl)cc3)o2)cc1	inconclusive [inhibitor, single point]	–
CCSc1nc2ccccc2n1Cc1cccc([N+](=O)[O-])c1	–	inconclusive: -33.7% [inhibitor]
Cc1cccc(C)c1NC(=O)Cn1nc(-c2ccc(Cl)s2)ccc1=O	inactive	–
CCC(C(=O)NCc1ccco1)N(C(=O)CNS(=O)(=O)c1ccc(C)cc1)c1ccccc1F (centres undefined)	inactive	–
CC(NC(=O)c1cc2ccccc2oc1=O)c1ccc(O)cc1 (centres undefined)	inconclusive [inhibitor, partial curve]	–
CNC(=S)N(Cc1ccc(OC)cc1)Cc1cc2cccc(C)c2[nH]c1=O	active: 18.4 µM	–
COc1ccc(NC(=O)CCS(=O)(=O)c2cccc3nonc23)cc1Cl	–	inconclusive: -20.5% [inhibitor]
NC(=O)COC(=O)c1c2c(nc3ccccc13)CCC2	inactive	–
CC1(C)CC(=O)C=C(c2ccc(COC(=O)C(c3ccccc3)c3ccccc3)cc2)C1=O	inconclusive [inhibitor, single point]	–
Cc1cccc(Cn2cnc3c(nnn3Cc3ccc(F)cc3)c2=O)c1	inconclusive [inhibitor, single point]	–
CC(C)Oc1ccc(S(=O)(=O)N2CCOCC2)cc1NC(=O)CN1C(=O)c2ccccc2C1=O	inactive	–
CCC(=O)N1Cc2cc(C(=O)NCCOC)nc(-c3cccc(-c4ccc(C#N)cc4)c3)c2[C@H]1CCO	inactive	–
Cc1oc2ncn(C)c(=O)c2c1C(=O)NC(C)c1ccccc1 (centres undefined)	inactive	–
Cc1ccc(C(C(=O)NC2CCCCC2)N(CC2CCCO2)C(=O)CCCC(=O)Nc2ccccn2)cc1 (centres undefined)	inconclusive [inhibitor, full curve]	–
COc1ccc(C(=O)COC(=O)c2ccc3c(c2)NC(=O)CS3)c(OC)c1	inconclusive [inhibitor, single point]	–

SMILES	Potency	activity change, negative = growth inhibition
Cc1cc(C)c(S(=O)(=O)N2CCOCC2)cc1C	inconclusive [inhibitor, single point]	–
Cc1ccc(N2C(=O)CC(Sc3ccccc3C(=O)O)C2=O)c([N+](=O)[O-])c1 (centres undefined)	inconclusive [inhibitor, single point]	–
CNCc1ccccc1Sc1cccc2ccccc12	active: 23.1 µM	–
O=C(Oc1cccc2cccnc12)c1ccc(N2C(=O)C3C4CCC(C4)C3C2=O)cc1 (centres undefined)	active: 0.517 µM	–
C(=N\N1CCN(C2c3ccccc3-c3ccccc32)CC1)/c1ccccn1	active: 20.6 µM	–
CCOC(=O)C1(C)C=C(Nc2ccc(C)cc2)C(=O)N1c1ccc(C)cc1 (centres undefined)	inconclusive [inhibitor, full curve]	–
Cc1ccc(C)c(CN2C(=O)CSc3ccc(C(=O)NCc4ccc(F)cc4)cc32)c1	active: 16.4 µM	–
COc1ccccc1/C=C/C(=O)NC(=S)Nc1ccc(S(=O)(=O)N(C)c2ccccc2)cc1	inconclusive [inhibitor, single point]	–
O=C(CSC1=Nc2ccccc2N=C(c2ccc(F)cc2)C1)NCc1ccc(F)cc1	inconclusive [inhibitor, partial curve, poor fit]	–
O=C(N[C@H]1C/C=C\C(c2cccc(F)c2)N(Cc2ccccc2)C(=O)C1)OCC1c2ccccc2-c2ccccc21 (some centres undefined)	inconclusive [inhibitor, single point]	–
COc1ccc(C2/C=C\CN(S(=O)(=O)c3ccc(C)cc3)CC(=O)N2Cc2ccc(F)cc2)cc1 (centres undefined)	inconclusive [inhibitor, single point]	–
CCc1nc2ccccc2c(C(=O)OCC(=O)Nc2cccc(S(=O)(=O)N3CCOCC3)c2)c1C	active: 16.4 µM	–
CCS(=O)(=O)N1CCc2cc(C(=O)Nc3cccc(Cl)c3C)ccc21	inconclusive [inhibitor, partial curve]	–
Nc1cccc2nc3ccccc3cc12	active: 6.51 µM	–
O=C1c2ccccc2C(=O)N1CCCCCCc1ccccc1	inactive	–
CN(C(=O)c1cccc(NC(=O)Cc2ccc(NC(=O)C3CCCN(S(=O)(=O)c4cccc([N+](=O)[O-])c4)C3)cc2)c1)C1CCCCC1 (centres undefined)	inactive	–
CCC(=O)Nc1ccc(S(=O)(=O)Nc2cccnc2)cc1	inactive	–
CC(C)NC(=O)CN(C(=O)CCC(=O)Nc1nccs1)c1ccc(C(C)C)cc1	inconclusive [inhibitor, single point]	–
CCC(=O)N1c2nc(-c3ccco3)nn2C2(CCCCC2)[C@@H]2CCCC[C@@H]21	inconclusive [inhibitor, single point]	–
COC(=O)[C@@]1(Cc2ccccc2)[C@H]2C(=O)N(Cc3ccccc3)C(=O)[C@H]2[C@H]2CN=C(SCc3ccc(C)cc3)N21	inconclusive [inhibitor, single point]	–
CC1CCCCC1NC(=S)NC(=O)c1ccccc1Br (centres undefined)	inconclusive [inhibitor, single point]	–
CCCC(=O)Nc1ccc2c(c1)C(=O)N(C)C[C@@H](OC)[C@H](C)CN(Cc1ccc(-c3ccccn3)cc1)[C@@H](C)CO2	inconclusive [inhibitor, single point]	–
CCCCC(c1nnnn1CC1CCCO1)N1CCN(c2cc(Cl)ccc2C)CC1 (centres undefined)	inconclusive [inhibitor, single point]	–

SMILES	Potency	activity change, negative = growth inhibition
O=C(CN1C2=NCCN2c2ccccc21)C12CC3CC(CC(C3)C1)C2	active: 20.6 µM	–
COC(=O)/C=C1/N/C(=N\c2nc(C)cc(C)n2)N(c2ccc(C)c(C)c2)C1=O	inconclusive [inhibitor, single point]	–
COc1ccc(N2CCN(C(CNC(=O)C(=O)NCCCN(C)C)c3cccnc3)CC2)cc1 (centres undefined)	inactive	–
CCCc1ccc(C(C)NC(=O)c2cnccn2)cc1 (centres undefined)	inconclusive [inhibitor, partial curve]	–
Cc1ccc(S(=O)(=O)N2CCN(c3nc(-n4cccn4)nc4ccccc34)CC2)cc1	inconclusive [inhibitor, single point]	–
CCOc1c(Cl)cc(Cl)cc1CNCCSc1nnnn1C	inconclusive [inhibitor, partial curve]	–
Cc1csc(NC(=O)CSc2ccccc2F)n1	inconclusive [inhibitor, single point]	–
COc1ccccc1NC(=O)c1cc(-c2ccc(C)o2)nc2ccccc12	inconclusive [inhibitor, partial curve]	–
COc1cc(C(=O)OCC#N)ccc1OCc1c(C)noc1C	inconclusive [inhibitor, single point]	–
CC(C)c1nc(NCc2ccccc2)c(C#N)c2c1CCCC2	inconclusive [inhibitor, single point]	–
CCOc1ccc2nc(N3CCCC(C(=O)NCCCN4C(C)CCCC4C)C3)sc2c1 (centres undefined)	inconclusive [inhibitor, single point]	–
O=C(/C=C/c1ccc([N+](=O)[O-])cc1)N(c1ccccn1)C1CCCCC1	inconclusive [inhibitor, single point]	–
CN1CCN(c2cccc3c2S(=O)(=O)N[C@H](Cc2ccccc2)CO3)CC1	inactive	–
CC(C)Cn1cnc2c(SCc3ccccc3Cl)nc(N)nc21	inconclusive [inhibitor, single point]	–
Cc1ccc(C2CC(c3ccccc3)=NN2c2ccc(S(N)(=O)=O)cc2)cc1 (centres undefined)	active: 29.1 µM	–
Cc1c(C)n(C)c2ccc(C(=O)Nc3cccc4ccccc34)cc12	active: 25.9 µM	–
O=C(CC(c1ccccc1)c1ccccc1O)NCc1ccccc1Cl (centres undefined)	active: 23.1 µM	–
COc1cc(CNC2CCCc3ccccc32)cc(OC)c1OC (centres undefined)	inconclusive [inhibitor, single point]	–
CCOC(=O)c1ccc(NC(=O)CNNC(=O)COc2ccccc2C)cc1	inactive	–
O=C(N/N=C/c1ccc(C(F)(F)F)cc1)c1ccc(O)cc1	inconclusive [inhibitor, single point]	–
Cc1cc(C)c2c(CC(=O)Nc3ccc(Cl)cn3)coc2c1	inactive	–
Cc1cc(OCC(=O)Nc2ccc(N3CCN(C)CC3)cc2)ccc1Cl	inconclusive [inhibitor, single point]	–
CCCOc1cccc(C2C(C(=O)c3cc4ccccc4o3)=C(O)C(=O)N2c2cc(C)on2)c1 (centres undefined)	inconclusive [inhibitor, single point]	–
